Some of the results follow.
Columns and labels:
Experiment in all cases: glycan array binding signal (z-score within array); higher = stronger binding
Conditions in all cases: glycan notation: IUPAC condensed, linker removed; mutation: R343I
Fuc(a1-2)Gal = target: Fuc(a1-2)Gal
Procedure, shortened: (§1)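 Columns mapping to the same glycan were averaged after glycan names were converted to IUPAC-condensed notation. The data come from 3228 arrays in the Consortium for Functional Glycomics database, limited to those with an available protein sequence. Binding is reported as a within-array Z-score averaged across arrays of one protein sequence and across linkers.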

Fuc(a1-2)Gal(b1-3)GalNAc = target: Fuc(a1-2)Gal(b1-3)GalNAc
Procedure, shortened: as §1

[1] = target: Fuc(a1-2)Gal(b1-3)GalNAc(b1-3)Gal
Procedure, shortened: as §1

[2] = target: Fuc(a1-2)Gal(b1-3)GalNAc(b1-3)Gal(a1-4)Gal(b1-4)Glc
Procedure, shortened: as §1

[3] = target: Fuc(a1-2)Gal(b1-3)GalNAc(b1-4)[Neu5Ac(a2-3)]Gal(b1-4)Glc
Procedure, shortened: as §1

Fuc(a1-2)Gal(b1-3)GlcNAc = target: Fuc(a1-2)Gal(b1-3)GlcNAc
Procedure, shortened: as §1

[4] = target: Fuc(a1-2)Gal(b1-3)GlcNAc(b1-3)Gal(b1-4)Glc
Procedure, shortened: as §1

[5] = target: Fuc(a1-2)Gal(b1-3)[Fuc(a1-4)]GlcNAc
Procedure, shortened: as §1

Fuc(a1-2)Gal(b1-4)Glc = target: Fuc(a1-2)Gal(b1-4)Glc
Procedure, shortened: as §1

Fuc(a1-2)Gal(b1-4)Glc6S = target: Fuc(a1-2)Gal(b1-4)Glc6S
Procedure, shortened: as §1

Fuc(a1-2)Gal(b1-4)GlcNAc = target: Fuc(a1-2)Gal(b1-4)GlcNAc
Procedure, shortened: as §1

[6] = target: Fuc(a1-2)Gal(b1-4)GlcNAc(b1-3)Gal(b1-4)GlcNAc
Procedure, shortened: as §1

[7] = target: Fuc(a1-2)Gal(b1-4)GlcNAc(b1-3)Gal(b1-4)GlcNAc(b1-3)Gal(b1-4)GlcNAc
Procedure, shortened: as §1

[8] = target: Fuc(a1-2)Gal(b1-4)GlcNAc6S
Procedure, shortened: as §1

[9] = target: Fuc(a1-2)Gal(b1-4)[Fuc(a1-3)]GlcNAc
Procedure, shortened: as §1

[10] = target: Fuc(a1-2)Gal(b1-4)[Fuc(a1-3)]GlcNAc(b1-3)Gal(b1-4)[Fuc(a1-3)]GlcNAc
Procedure, shortened: as §1

[11] = target: Fuc(a1-2)Gal(b1-4)[Fuc(a1-3)]GlcNAc(b1-3)Gal(b1-4)[Fuc(a1-3)]GlcNAc(b1-3)Gal(b1-4)[Fuc(a1-3)]GlcNAc
Procedure, shortened: as §1

Fuc(a1-2)Gal6S(b1-4)Glc = target: Fuc(a1-2)Gal6S(b1-4)Glc
Procedure, shortened: as §1

[12] = target: Fuc(a1-2)Gal6S(b1-4)Glc6S
Procedure, shortened: as §1

[13] = target: Fuc(a1-2)Gal6S(b1-4)GlcNAc
Procedure, shortened: as §1

Fuc(a1-2)[Gal(a1-3)]Gal = target: Fuc(a1-2)[Gal(a1-3)]Gal
Procedure, shortened: as §1

[14] = target: Fuc(a1-2)[Gal(a1-3)]Gal(b1-3)GlcNAc
Procedure, shortened: as §1

[15] = target: Fuc(a1-2)[Gal(a1-3)]Gal(b1-4)Glc
Procedure, shortened: as §1

[16] = target: Fuc(a1-2)[Gal(a1-3)]Gal(b1-4)GlcNAc
Procedure, shortened: as §1

[17] = target: Fuc(a1-2)[Gal(a1-3)]Gal(b1-4)[Fuc(a1-3)]GlcNAc
Procedure, shortened: as §1

[18] = target: Fuc(a1-2)[Gal(a1-4)]Gal(b1-4)GlcNAc
Procedure, shortened: as §1

[19] = target: Fuc(a1-2)[GalNAc(a1-3)]Gal
Procedure, shortened: as §1

[20] = target: Fuc(a1-2)[GalNAc(a1-3)]Gal(b1-3)GlcNAc
Procedure, shortened: as §1

[21] = target: Fuc(a1-2)[GalNAc(a1-3)]Gal(b1-4)Glc
Procedure, shortened: as §1

[22] = target: Fuc(a1-2)[GalNAc(a1-3)]Gal(b1-4)GlcNAc
Procedure, shortened: as §1

B1: Surfactant Protein D (Human); Neck + Carbohydrate Recognition Domain (NCRD) (Homo sapiens) (protein)
chain: MLLFLLSALVLLTQPLGYLEAEMKTYSHRTMPSACTLVMCSSVESGLPGRDRDGREGPRGEKGDPGLPGAAGQAGMPGQAGPVGPKGDNGSVGEPGPKGDTGPSGPPGPPGVPGPAGREGALGKQGNIGPQGKPGPKGEAGPKGEVGAPGMQGSAGARGLAGPKGERGVPGERGVPGNTGAAGSAGAMGPQGSPGARGPPGLKGDKGIPGDKGAKGESGLPDVASLRQQVEALQGQVQHLQAAFSQYKKVELFPNGQSVGEKIFKTAQFVKPFTEAQLLCTQAGGQLASPRSAAENAALQQLVVAKNEAAFLSMTDSKTEGKFTYPTGESLVYSNWAPGEPNDDGGSEDCVEIFTNGKWNDIACGEKRLVVCEF
- glycan array binding signal (z-score) (Fuc(a1-2)Gal): -0.264
- glycan array binding signal (z-score) (Fuc(a1-2)Gal(b1-3)GalNAc): -0.279
- glycan array binding signal (z-score) [1]: -0.215
- glycan array binding signal (z-score) [2]: -0.275
- glycan array binding signal (z-score) [3]: -0.231
- glycan array binding signal (z-score) (Fuc(a1-2)Gal(b1-3)GlcNAc): -0.258
- glycan array binding signal (z-score) [4]: -0.271
- glycan array binding signal (z-score) [5]: -0.266
- glycan array binding signal (z-score) (Fuc(a1-2)Gal(b1-4)Glc): -0.273
- glycan array binding signal (z-score) (Fuc(a1-2)Gal(b1-4)Glc6S): -0.274
- glycan array binding signal (z-score) (Fuc(a1-2)Gal(b1-4)GlcNAc): -0.251
- glycan array binding signal (z-score) [6]: -0.262
- glycan array binding signal (z-score) [7]: -0.239
- glycan array binding signal (z-score) [8]: -0.277
- glycan array binding signal (z-score) [9]: -0.274
- glycan array binding signal (z-score) [10]: -0.256
- glycan array binding signal (z-score) [11]: -0.224
- glycan array binding signal (z-score) (Fuc(a1-2)Gal6S(b1-4)Glc): -0.264
- glycan array binding signal (z-score) [12]: -0.265
- glycan array binding signal (z-score) [13]: -0.262
- glycan array binding signal (z-score) (Fuc(a1-2)[Gal(a1-3)]Gal): -0.265
- glycan array binding signal (z-score) [14]: -0.272
- glycan array binding signal (z-score) [15]: -0.254
- glycan array binding signal (z-score) [16]: -0.279
- glycan array binding signal (z-score) [17]: -0.273
- glycan array binding signal (z-score) [18]: -0.26
- glycan array binding signal (z-score) [19]: -0.266
- glycan array binding signal (z-score) [20]: -0.274
- glycan array binding signal (z-score) [21]: -0.275
- glycan array binding signal (z-score) [22]: -0.269

— the supplement of paper PMC8728848
